The results in this text go back to ChEMBL document CHEMBL4888484, “Replenishing the malaria drug discovery pipeline: Screening and hit evaluation of the MMV Hit Generation Library 1 (HGL1) against asexual blood stage Plasmodium falciparum ,using a nano luciferase reporter read-out” (2022).

In all, about 150,000 compounds went through this assay and about 540 (0.36%) showed an effect of 50% or more. Some of the results follow.

In general, % Inhibition refers to the drop in the measured response relative to a control, in per cent.

The test system of the assay is Plasmodium falciparum. In words: Primary screen in NF54 nanoGlo assay, in single point, at 2uM, 72h; a lower Z score goes with more inhibition. Format: functional, Erythrocyte. The following applies: timepoint 72 hour.
With `COC(=O)C1CCN(C(=O)CN2CCCc3c(F)ccc(C)c32)CC1`, the “% Inhibition” value amounted to 3% and the Z score is -0.41.
The corresponding values for `Fc1ccccc1CNC1C2CCOC2C12CCC2` (stereo not drawn) are -13% and 1.51.
For `Cc1c(Cl)cccc1NC(=O)CCNc1ccc(C#N)nc1`, the “% Inhibition” value is on record as -21% and the Z score came to 2.73.
On the same counts, the results for `Cn1cc([C@]2(CNC(=O)C3(O)Cc4ccccc4C3)CCCO2)cn1` are -9% and 1.56.
Turning to `COc1cccc(C2CN(C(=O)c3ccc4c(c3)OCO4)CC2C(=O)NCC(C)C)c1OC` (stereo not drawn), the “% Inhibition” value is on record as -8% and the Z score is 0.85.
The corresponding values for `Cc1noc(CN2CC[C@@]3(CCCN(C4CCCCC4)C3=O)C2)n1` are 9% and -1.17.
For `COc1cccnc1NC(=O)[C@@H](C)Cn1ncc2ccccc21`, the “% Inhibition” value amounted to 4% and the Z score is given as -0.51.
As to `CCCc1[nH]nc(-c2cc(OC)ccc2OC)c1NC(=O)c1ccc2c(c1)OCO2`, the “% Inhibition” value is on record as -12% and the Z score worked out at 1.67.
On to `O=C(CN1CCOCC1)Nc1ccccc1-c1ccccc1`, for which the “% Inhibition” value is -1% and the Z score was 0.15.
For the compound `CC[C@H](NC(=O)CNC(=O)c1cccc(F)c1)c1nc(C)n[nH]1`, the “% Inhibition” value is given as 2% and the Z score was -0.26.
In the case of `CCn1cncc1[C@@H]1CCCCN1C(=O)C12CC(C1)C2`, the “% Inhibition” value was determined as 1% and the Z score is on record as -0.16.
In the case of `Cc1cc(CNC(=O)c2cnccn2)no1`, the “% Inhibition” value is listed as 9% and the Z score is on record as -1.19.
On the same counts, the results for `CCC[C@@]1(C)CCCN(c2cnc(C#N)cn2)C1` are 4% and -0.76.
Consider `CCc1noc(C)c1NC(=O)N1CCC[C@]1(C)Cc1cccc(F)c1`, for which the “% Inhibition” value is given as -3% and the Z score worked out at 0.56.
On the same counts, the results for `C[C@H]1C(=O)N(c2ccccc2-c2ccccc2)CCN1C(=O)c1ccc(Cl)cc1` are -4% and 0.62.
With `O=C1C[C@]2(CCN(c3nc(-c4ccccc4)no3)C2)C(=O)N1`, the “% Inhibition” value was -24% and the Z score is 3.05.
`COc1ccc(CN2C(=O)COC[C@H]2C(=O)NCc2ccc(F)cc2)c(OC)c1`: the “% Inhibition” value is given as -3% and the Z score stood at 0.49.
On the same counts, the results for `CCn1nc(C(=O)N2CCC(c3cc(N4CCCC4)ncn3)CC2)cc1C` are -10% and 1.4.
As to `Fc1cccc2c1CN(c1nc(C3CCOCC3)no1)CCO2`, the “% Inhibition” value is recorded as 3% and the Z score is recorded as -0.43.
On the same counts, the results for `CCn1ncc(C(=O)Nc2n[nH]cc2Cl)c1C` are -8% and 1.62.
Turning to `CC1CN(CCN(C)CCN2CC(C)OCC2C)C(C)CO1` (stereo not drawn), the “% Inhibition” value is given as 1% and the Z score is listed as -0.12.
The corresponding values for `Cc1ccc(NC(=O)N2CCC(N(CCC(C)C)C3CCOCC3)CC2)cc1F` are -7% and 1.28.
Consider `Cn1cc([C@H]2CN(C(=O)c3n[nH]c4c3CCC4)C[C@H]2CC(=O)O)nn1`, for which the “% Inhibition” value was -6% and the Z score is listed as 0.64.
On the same counts, the results for `Cc1cccc(C(=O)N(Cc2csc(COc3ccc(Cl)cc3)n2)C2CC2)c1` are -12% and 1.43.
